Experimental data taken from PubChem BioAssay AID1508624 (National Center for Advancing Translational Sciences (NCATS), 2021).
Out of some 48,000 compounds screened, about 120 (0.25%) were called active. Another 4% or so got no clear call; they are omitted. The call rests on the fitted dose curve; in most records, active means well fitted activation curve with a large enough effect; inconclusive means small, poorly fitted or top-dose-only effect, or another doubt; inactive means no such curve, though single readings can be large or run the other way. The list shows a part of the results.

Test: Primary qHTS for Identification of Small Molecule Activators of Huntingtin-Antisense Promoter Activity; further: nearly all actives have a fitted effect of over 55% in size
Settings: HEK293 HTT-AS promoter firefly luciferase reporter (activity 0% = vehicle and -100% = no light), 24 h; series mostly up to 57.5 µM; activity change, positive = activation: at the top concentration
In short: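 Quantitative HTS used concentration series of up to 57.5 uM final on HEK293 luciferase reporter cells, 24 h at 37 degrees C. Readout was Dual-Glo firefly luminescence.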

Activity change, positive = activation, inactive:
CCC(=O)n1nc(-c2cccnc2)nc1NCc1ccc(F)cc1 14.2%, O=C(Cn1c(=O)oc2cc(S(=O)(=O)NCc3ccccc3)ccc21)Nc1ccc(F)c(Cl)c1 -28.2%, O=C(O)c1ccccc1NCCc1ccccc1 48.4%, CCc1ccc(NC(=O)Cn2ccn(Cc3ccccc3OC)c(=O)c2=O)cc1 -22.7%, Cc1ccc(NC(=O)c2c(C)oc3ncnc(N4CCCCC4)c23)cc1Cl -24.7%, Cc1ccc(-n2nc(C)c3c(C)cc(=O)n(CC(=O)N4CCCc5ccccc54)c32)cc1 -20.6%, CCn1cc(S(=O)(=O)c2cccc(Cl)c2)c(=O)c2cc(F)c(N3CCC(C)CC3)cc21 -13.3%, COc1cccc(-c2ccc3c(N)c(C(=O)c4ccc(Br)cc4)sc3n2)c1 -28.6%, COc1ccc(C)cc1NC(=O)CCc1c(C)nn(-c2ccc(N3CCOCC3)nn2)c1C 1.69%, O=C(Cc1ccc(Cl)cc1)Nc1nnc2n1CCS2 0.52%, O=C(COCc1cc(-c2cccs2)on1)NCc1ccc(Cl)cc1 -9.19%, COc1cccc(CNC(=O)Cc2csc3ccccc23)c1OC 8.73%, Cc1cc(C)c(NS(=O)(=O)c2ccc(-c3cnc(C4CC4)o3)cc2)c(C)c1 -50.2%, COc1ccc(NC(=O)C(=O)NCC2(c3ccc(OC)c(OC)c3)CCCC2)cc1 -15.3%, Cc1ccc(CSc2oc(-c3cccs3)nc2S(=O)(=O)c2ccccc2)cc1 6.83%, COc1ccccc1N1CCN(c2ncc3c(n2)CCN(Cc2ccccc2F)C3)CC1 -14.2%, CC(=O)c1ccc(N2CCN(c3ncnc4c3nc3n4CCCC3)CC2)cc1 -31.9%, COc1ccc(CCNC(=O)Cc2c(C)c3c(cc(C)c4c(C)c(C)oc43)oc2=O)cc1 -3.06%, C#C[C@]1(O)CC[C@H]2[C@@H]3[C@H](C)CC4=C(CCC(=O)C4)[C@H]3CC[C@@]21C -20.1%, CCOC(=O)N1CCc2c(sc3c2c(=O)n(Cc2ccccc2)c(=O)n3Cc2ccccc2Cl)C1 -10.8%, Cc1ccc2ncc(C(=O)N3CCN(c4ccccc4F)CC3)c(=O)n2c1 0%, COc1cccc(NC(=O)C2CCN(c3nnc(C)c4c(C)n(-c5ccccc5)nc34)CC2)c1 -23.7%, Cc1ccc(S(=O)(=O)N(CC(=O)NCCc2ccc(Cl)cc2)c2ccccc2C)cc1 -12.6%, CCc1ccc(OCC(=O)N(Cc2ccc(C)o2)C2CCS(=O)(=O)C2)cc1 (centres undefined) -12.3%, COc1ccc(CCNC(=O)c2cnn(-c3ccc(F)cc3)c2C2CCN(C(=O)OC(C)(C)C)CC2)c(OC)c1 -26.2%, CCc1ccccc1NC(=O)N1CCc2c([nH]c3ccccc23)C1c1ccc(C)cc1 (centres undefined) -29.1%, COc1ccc(NC(=O)c2c(NC(=O)COc3ccccc3)sc3c2CCC(C)C3)cc1 (centres undefined) -7.06%, O=C(Nc1ccccc1C(F)(F)F)c1ccc2oc(=O)c(S(=O)(=O)c3ccc(F)cc3)cc2c1 -92.9%, O=C(NCCC1=CCCCC1)c1ccc2c(=O)n3nc(Nc4ccccc4)sc3nc2c1 -8.13%, COCCCNC(=O)c1cn(CCOC)c(=O)c2c1c1ccccc1n2C -14.2%, COc1ccc(-c2noc(CCC(=O)Nc3ccc(C(F)(F)F)cc3)n2)cc1 -21.9%, Cc1ccccc1CNC(=O)CN1C(=O)CSc2ccc(S(=O)(=O)N(C)C)cc21 1.01%, O=C(O)COc1nn(Cc2ccccc2)c2ccccc12 -2.02%, COc1ccc(S(=O)(=O)Nc2ccc(-c3cn4ccsc4n3)cc2)cc1C -7.3%, COc1ccc(CCN2C(=O)c3oc4cc(C)cc(C)c4c(=O)c3C2c2ccccc2F)cc1OC (centres undefined) -17.9%, COc1cccc(-c2nnc(SCC(=O)NC3CCCCC3)o2)c1 -14.3%, Cc1ccc(NC(=O)c2ccc(CN3C(=O)CCn4nc(C)cc43)cc2)c(Cl)c1 -14.7%, CCCn1c(=O)c2sccc2n2c(CCCC(=O)Nc3ccc(Oc4ccc(Cl)cc4)cc3)nnc12 -37.4%, CC(=O)c1ccc(NS(=O)(=O)c2ccc(-c3cc(C)no3)s2)cc1 -24.2%, CCOc1ccc(CCNC(=O)C2CCN(C(=O)c3cc4sccc4n3CC)CC2)cc1OCC -32.1%, Cc1c(NC(=O)c2cc(=O)c3ccccc3o2)c(=O)n(-c2ccccc2)n1C 19.4%, Cc1coc2c(C)c3oc(=O)c(CC(=O)NCCc4ccc(Cl)cc4)c(C)c3cc12 -4.48%, C=CCc1c(C)nc2nc(SCC(=O)Nc3ccc(C)c(C)c3)nn2c1C -26%, Cc1cccc(CSc2nc(-c3cccs3)ccc2C#N)c1 -31.4%, O=C(COc1ccccc1F)Nc1nnc(SCc2cc(=O)c3ccccc3[nH]2)s1 -23.1%, OC[C@@H](O)[C@@H](O)[C@H](O)[C@@H](O)CO -4.49%, COc1ccc(NC(=O)C2CCCN(S(=O)(=O)c3ccc4c(c3)oc(=O)n4C)C2)c(OC)c1 (centres undefined) -31.9%, COc1cccc(N2CCN(C(=O)c3cccn3-c3nnc(N4CCCC4)s3)CC2)c1 -5.74%, COCCCNC(=O)c1ccc(-n2c(-c3ccccc3)cc3c2CCC(C)C3)cc1 (centres undefined) -42.4%, CCNC(=O)c1ccc(CSc2nc3ccncc3n2Cc2ccc(F)cc2)cc1 -18.6%, CCn1c(C(=O)NCc2cc(Br)ccc2OC)cc2oc3ccccc3c21 1.58%, CCN(C(=O)Cn1cnc2onc(-c3ccc(F)cc3)c2c1=O)c1cc(C)ccc1C -30%, CO[C@]12C[C@@H](COC(=O)c3cncc(Br)c3)CN(C)[C@@H]1Cc1cn(C)c3cccc2c13 -0.202%, CCCCC(=O)O[C@]1(C(=O)CO)[C@@H](C)C[C@H]2[C@@H]3CCC4=CC(=O)C=C[C@]4(C)[C@@]3(F)[C@@H](O)C[C@@]21C -7.8%, Cc1ccc(NC(=O)N2CCN(c3cc(-c4noc(C)n4)ccc3C)CC2)c(C)c1 -13.6%, Cc1cccc(CCNC(=O)CN(c2ccc(C(C)C)cc2)S(=O)(=O)c2c(C)nn(C)c2C)c1 -27.5%, COc1cccc(Cc2nc3ccccc3nc2SCC(=O)NCc2ccc(C)cc2)c1 -8.21%, CC(=O)c1ccc(NC(=O)C2CCC(CNS(=O)(=O)c3cccs3)CC2)cc1 (centres undefined) -0.422%, Cc1cccc(NC(=O)Cn2c(=O)ccc3cc(S(=O)(=O)N4CCCC4)ccc32)c1C -13.4%, COc1ccc(CCNC(=O)c2ccc3c(c2)nc2n3CCC(C)C2)cc1OC (centres undefined) -21.1%, CCOC(=O)c1noc2nc(C)n(Cc3cccc(C#N)c3)c(=O)c12 1.55%, O=C(NCc1ccc(F)cc1)c1ccc2c(c1)nnn2C1CCCC1 -5.84%, COc1ccc(N2C(=O)CS(=O)(=O)C23C(=O)N(Cc2ccc(C)cc2)c2ccccc23)cc1Cl (centres undefined) -20.9%, CCOc1ccc(NC(=O)N2CCN(Cc3cc(=O)n4nc(-c5ccc(OC)cc5)sc4n3)CC2)cc1 -8.99%, Cc1c(NC(=O)c2cc(-c3ccc(Cl)cc3)on2)c(=O)n(-c2ccccc2)n1C -31.5%, CCOC(=O)c1[nH]c(C)c(CCC(=O)NCc2ccc(OC)cc2)c1C -12.1%, COc1ccc(-c2cc(C)no2)cc1S(=O)(=O)N1CCN(c2ccccc2F)CC1 -52.6%, CC(=O)OCC(=O)[C@@]1(O)CC[C@H]2[C@@H]3CCC4=CC(=O)CC[C@]4(C)[C@H]3C(=O)C[C@@]21C -10%, CC(=O)N1c2ccccc2CC1C(=O)NCc1cccc(Cl)c1 (centres undefined) 14.7%, CC1CCN(c2nc3c(S(=O)(=O)c4ccc(Cl)cc4)nnn3c3ccsc23)CC1 -2.36%, COc1ccc(CCNc2nc3c(-c4cccc(F)c4)nnn3c3ccccc23)cc1OC 3.72%, Cc1cccc(NC(=O)CSc2nc(-c3ccccc3Cl)nc3c2Cc2c(CO)cnc(C)c2O3)c1C -15.3%, CCOc1cccc(C2CC(=O)Nc3cc4c(cc32)OCCO4)c1 (centres undefined) -42.3%, COCCNC(=O)C1CCN(c2nc3ccccc3nc2C(F)(F)F)CC1 2.7%, CCc1ccccc1NC(=O)c1ccc(CN2C(=O)CCn3nc(C)cc32)cc1 -17.9%, Cc1ccccc1NC(=O)CSc1cn(CC(=O)N(C(C)C)C(C)C)c2ccccc12 -20.6%, COc1cc2c(cc1OC)n(Cc1ccc([N+](=O)[O-])cc1)c(=O)n1nc(-c3ccccc3)nc21 3.45%, COc1cc(C(=O)N2CCOCC2)cc(OC)c1OC -4%, COc1cc2c(cc1OC)C(COc1ccc3c(C)cc(=O)oc3c1)N(C(=O)c1ccccc1F)CC2 (centres undefined) 5.88%, COc1ccc(CNc2nc3ccccc3c3nc(-c4ccccc4)nn23)cc1 -13.5%, Cc1ccc(OCC(=O)Nc2nc(-c3ccc(Br)cc3)ns2)cc1C -17.7%, Cc1ccccc1OCC(=O)Nc1ccc2nc(SCc3ccccc3)sc2c1 13.6%, CC(=O)OCC(=O)[C@@]1(O)CC[C@H]2[C@@H]3CCC4=CC(=O)C=C[C@]4(C)[C@@]3(F)[C@@H](O)C[C@@]21C -8.72%, COc1ccc(OCC(=O)NC2CC(=O)N(c3ccc4c(c3)OCCO4)C2)cc1 (centres undefined) 19.1%, COc1ccc(-c2ccc(NS(=O)(=O)c3cccc(C)c3)cc2)nn1 -17%, CCc1ccc(NS(=O)(=O)c2c(C)nc3sc(CC)nn3c2=O)cc1 -37.2%, COc1ccc(CCNC(=O)C2CCN(c3nc4ccccc4nc3C(F)(F)F)CC2)c(OC)c1 -0.406%, Cc1ccc(C)c(CN2C(=O)C3(c4ccccc42)N(c2ccc(Cl)cc2)C(=O)CS3(=O)=O)c1 (centres undefined) -11.9%, Cc1ccc(S(=O)(=O)N2CCc3cc(C(=O)Nc4c(F)cccc4F)ccc32)cc1 -4.05%, CCC(C(=O)N1CCN(c2cc(C)ccc2C)CC1)n1nc(C)n2c(cc3occc32)c1=O (centres undefined) -35.1%, CCOC(=O)Cn1c(=O)n(C2CCCCC2)c2nc(-c3ccc(C(C)C)cc3)nc(C(N)=O)c21 -17.7%, Cc1ccc2c(CN3CCN(C(=O)c4ccc(Br)cc4)CC3)cc(=O)oc2c1 -22.7%, COc1ccccc1NC(=O)CSC1=Nc2ccccc2C2=NC(CC(=O)NCc3ccccc3)C(=O)N12 (centres undefined) 4.43%, CCOc1ccc(NC(=O)C2CCCN(c3nnc(C)c4c(C)n(-c5ccccc5)nc34)C2)cc1 (centres undefined) -20.3%
